In PMC3795252, “SLP-76 Sterile α Motif (SAM) and Individual H5 α Helix Mediate Oligomer Formation for Microclusters and T-cell Activation*” (The Journal of Biological Chemistry, 2013):
No constants are given. Whether binding was seen depends on the method and setting. For some of these results: Binding seen in cells or lysates may run through a third protein. Some entries that bind do so weakly or less than the wild type. One block for each binder: values may come before it.

Key:
[1] = target: SLP-76 wild type, full length, expressed in J14 Jurkat T-cells (human) (UniProt Q13094); experiment: co-IP; as a3, but resting cells (isotype control instead of anti-CD3); precipitation with anti-His, blot with anti-SLP-76
[2] = target: T1, SLP-76 dN78 (SAM domain deletion mutant, residues 79–533), expressed in J14 Jurkat T-cells (human) (UniProt Q13094); experiment: co-IP; J14 cells co-transfected with a His6-tagged and an EYFP-tagged copy; anti-CD3 ligation (2–15 min, 0.5–5 μg/ml); lysis, precipitation with anti-His, blot with anti-SLP-76
T1 sequence: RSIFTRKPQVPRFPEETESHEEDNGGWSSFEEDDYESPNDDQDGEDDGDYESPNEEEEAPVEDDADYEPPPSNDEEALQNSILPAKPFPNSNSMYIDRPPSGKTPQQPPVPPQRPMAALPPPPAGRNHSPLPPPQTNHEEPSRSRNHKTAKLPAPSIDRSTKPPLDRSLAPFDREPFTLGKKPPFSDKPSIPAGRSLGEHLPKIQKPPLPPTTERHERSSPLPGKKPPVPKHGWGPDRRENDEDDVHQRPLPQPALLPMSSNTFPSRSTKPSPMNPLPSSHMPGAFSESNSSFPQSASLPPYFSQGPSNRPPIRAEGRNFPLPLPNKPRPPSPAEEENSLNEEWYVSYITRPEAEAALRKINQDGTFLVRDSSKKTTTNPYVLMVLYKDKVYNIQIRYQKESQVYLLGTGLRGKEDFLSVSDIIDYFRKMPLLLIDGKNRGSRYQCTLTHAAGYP

[3] = target: T2, SLP-76 dN57 (lacking SAM helices H1–H4, residues 58–533), expressed in J14 Jurkat T-cells (human) (UniProt Q13094); experiment: as above
T2 sequence: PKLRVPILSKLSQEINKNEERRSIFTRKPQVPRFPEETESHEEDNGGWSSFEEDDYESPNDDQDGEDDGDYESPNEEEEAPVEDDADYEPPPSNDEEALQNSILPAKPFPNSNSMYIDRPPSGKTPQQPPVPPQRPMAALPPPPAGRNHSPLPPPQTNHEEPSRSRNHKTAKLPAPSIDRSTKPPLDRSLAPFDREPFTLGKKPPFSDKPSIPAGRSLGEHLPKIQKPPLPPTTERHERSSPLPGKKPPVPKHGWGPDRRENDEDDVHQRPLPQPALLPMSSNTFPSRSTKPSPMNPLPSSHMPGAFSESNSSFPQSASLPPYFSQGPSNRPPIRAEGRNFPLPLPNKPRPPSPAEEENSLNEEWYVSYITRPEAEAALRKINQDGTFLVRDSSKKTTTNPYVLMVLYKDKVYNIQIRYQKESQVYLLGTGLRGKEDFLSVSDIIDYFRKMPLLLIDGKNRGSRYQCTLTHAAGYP

[4] = target: SLP-76 wild type, full length, expressed in J14 Jurkat T-cells (human) (UniProt Q13094); experiment: as above
[5] = target: SLP-76 wild type, full length, expressed in J14 Jurkat T-cells (human) (UniProt Q13094); experiment: co-IP; J14 cells co-transfected with an EYFP-tagged and an HA-tagged copy; resting or anti-CD3 ligation for 5 min; precipitation with anti-GFP, blot with anti-GFP or anti-HA
[6] = target: SLP-76 SAM domain lacking the H5 helix (residues 1–61), recombinant (human) (UniProt Q13094); experiment: MST; 10 nM NT-647-labelled protein titrated with the same protein unlabelled (0–90.5 μM, 1:1 dilutions); Monolith NT.115; 25 °C; 10 mM HEPES pH 7.5, 500 mM NaCl, 0.5 mM TCEP, 0.05% Tween 20; constant is of monomer to dimer; both purified
[7] = target: T1, SLP-76 dN78 (SAM domain deletion mutant, residues 79–533), expressed in J14 Jurkat T-cells (human); experiment: co-IP; J14 cells transfected with SLP-76 WT or dN78; isotype control or anti-CD3 ligation; precipitation with anti-HA, blot with anti-GADS, anti-ADAP and anti-SLP-76
[8] = target: T3, SLP-76 wild type, full length, expressed in J14 Jurkat T-cells (human), Q13094; experiment: as above; conditions: remark: other sources report otherwise
T3 chain: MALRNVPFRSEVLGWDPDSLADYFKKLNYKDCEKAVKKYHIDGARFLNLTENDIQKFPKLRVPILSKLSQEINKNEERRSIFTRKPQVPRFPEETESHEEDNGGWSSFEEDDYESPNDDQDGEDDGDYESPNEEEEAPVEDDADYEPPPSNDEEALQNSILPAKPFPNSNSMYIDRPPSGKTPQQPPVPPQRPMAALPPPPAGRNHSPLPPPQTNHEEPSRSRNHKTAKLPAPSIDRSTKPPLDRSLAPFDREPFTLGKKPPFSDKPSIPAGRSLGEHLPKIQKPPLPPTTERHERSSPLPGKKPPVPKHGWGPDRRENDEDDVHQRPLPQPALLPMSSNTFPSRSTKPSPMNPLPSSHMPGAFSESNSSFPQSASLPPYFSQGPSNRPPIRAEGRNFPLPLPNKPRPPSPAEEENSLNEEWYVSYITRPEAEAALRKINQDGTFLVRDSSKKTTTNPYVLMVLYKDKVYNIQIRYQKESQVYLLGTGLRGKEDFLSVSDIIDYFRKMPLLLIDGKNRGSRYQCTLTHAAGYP

B1: SLP-76 wild type, full length, expressed in J14 Jurkat T-cells (protein, UniProt Q13094 1-533)
chain: MALRNVPFRSEVLGWDPDSLADYFKKLNYKDCEKAVKKYHIDGARFLNLTENDIQKFPKLRVPILSKLSQEINKNEERRSIFTRKPQVPRFPEETESHEEDNGGWSSFEEDDYESPNDDQDGEDDGDYESPNEEEEAPVEDDADYEPPPSNDEEALQNSILPAKPFPNSNSMYIDRPPSGKTPQQPPVPPQRPMAALPPPPAGRNHSPLPPPQTNHEEPSRSRNHKTAKLPAPSIDRSTKPPLDRSLAPFDREPFTLGKKPPFSDKPSIPAGRSLGEHLPKIQKPPLPPTTERHERSSPLPGKKPPVPKHGWGPDRRENDEDDVHQRPLPQPALLPMSSNTFPSRSTKPSPMNPLPSSHMPGAFSESNSSFPQSASLPPYFSQGPSNRPPIRAEGRNFPLPLPNKPRPPSPAEEENSLNEEWYVSYITRPEAEAALRKINQDGTFLVRDSSKKTTTNPYVLMVLYKDKVYNIQIRYQKESQVYLLGTGLRGKEDFLSVSDIIDYFRKMPLLLIDGKNRGSRYQCTLTHAAGYP
binding [1]: binds weakly
binding [2]: no binding
binding [3]: binds
binding [4]: binds
binding [5]: binds

B3: SLP-76 dN57 (lacking SAM helices H1–H4, residues 58–533), expressed in J14 Jurkat T-cells (domain or fragment, UniProt Q13094 58-533)
chain: PKLRVPILSKLSQEINKNEERRSIFTRKPQVPRFPEETESHEEDNGGWSSFEEDDYESPNDDQDGEDDGDYESPNEEEEAPVEDDADYEPPPSNDEEALQNSILPAKPFPNSNSMYIDRPPSGKTPQQPPVPPQRPMAALPPPPAGRNHSPLPPPQTNHEEPSRSRNHKTAKLPAPSIDRSTKPPLDRSLAPFDREPFTLGKKPPFSDKPSIPAGRSLGEHLPKIQKPPLPPTTERHERSSPLPGKKPPVPKHGWGPDRRENDEDDVHQRPLPQPALLPMSSNTFPSRSTKPSPMNPLPSSHMPGAFSESNSSFPQSASLPPYFSQGPSNRPPIRAEGRNFPLPLPNKPRPPSPAEEENSLNEEWYVSYITRPEAEAALRKINQDGTFLVRDSSKKTTTNPYVLMVLYKDKVYNIQIRYQKESQVYLLGTGLRGKEDFLSVSDIIDYFRKMPLLLIDGKNRGSRYQCTLTHAAGYP
binding [3]: binds

B6: ADAP (adhesion and degranulation promoting adapter protein), O15117 1-783 (protein)
chain: MAKYNTGGNPTEDVSVNSRPFRVTGPNSSSGIQARKNLFNNQGNASPPAGPSNVPKFGSPKPPVAVKPSSEEKPDKEPKPPFLKPTGAGQRFGTPASLTTRDPEAKVGFLKPVGPKPINLPKEDSKPTFPWPPGNKPSLHSVNQDHDLKPLGPKSGPTPPTSENEQKQAFPKLTGVKGKFMSASQDLEPKPLFPKPAFGQKPPLSTENSHEDESPMKNVSSSKGSPAPLGVRSKSGPLKPAREDSENKDHAGEISSLPFPGVVLKPAASRGGPGLSKNGEEKKEDRKIDAAKNTFQSKINQEELASGTPPARFPKAPSKLTVGGPWGQSQEKEKGDKNSATPKQKPLPPLFTLGPPPPKPNRPPNVDLTKFHKTSSGNSTSKGQTSYSTTSLPPPPPSHPASQPPLPASHPSQPPVPSLPPRNIKPPFDLKSPVNEDNQDGVTHSDGAGNLDEEQDSEGETYEDIEASKEREKKREKEEKKRLELEKKEQKEKEKKEQEIKKKFKLTGPIQVIHLAKACCDVKGGKNELSFKQGEQIEIIRITDNPEGKWLGRTARGSYGYIKTTAVEIDYDSLKLKKDSLGAPSRPIEDDQEVYDDVAEQDDISSHSQSGSGGIFPPPPDDDIYDGIEEEDADDGFPAPPKQLDMGDEVYDDVDTSDFPVSSAEMSQGTNVGKAKTEEKDLKKLKKQEKEEKDFRKKFKYDGEIRVLYSTKVTTSITSKKWGTRDLQVKPGESLEVIQTTDDTKVLCRNEEGKYGYVLRSYLADNDGEIYDDIADGCIYDND
binding [8]: binds

Now from value to binder:

binding [2]: no binding
B2: SLP-76 dN78 (SAM domain deletion mutant, residues 79–533), expressed in J14 Jurkat T-cells (domain or fragment, UniProt Q13094 79-533)
chain: RSIFTRKPQVPRFPEETESHEEDNGGWSSFEEDDYESPNDDQDGEDDGDYESPNEEEEAPVEDDADYEPPPSNDEEALQNSILPAKPFPNSNSMYIDRPPSGKTPQQPPVPPQRPMAALPPPPAGRNHSPLPPPQTNHEEPSRSRNHKTAKLPAPSIDRSTKPPLDRSLAPFDREPFTLGKKPPFSDKPSIPAGRSLGEHLPKIQKPPLPPTTERHERSSPLPGKKPPVPKHGWGPDRRENDEDDVHQRPLPQPALLPMSSNTFPSRSTKPSPMNPLPSSHMPGAFSESNSSFPQSASLPPYFSQGPSNRPPIRAEGRNFPLPLPNKPRPPSPAEEENSLNEEWYVSYITRPEAEAALRKINQDGTFLVRDSSKKTTTNPYVLMVLYKDKVYNIQIRYQKESQVYLLGTGLRGKEDFLSVSDIIDYFRKMPLLLIDGKNRGSRYQCTLTHAAGYP

binding [6]: no binding
B4: SLP-76 SAM domain lacking the H5 helix (residues 1–61), recombinant (domain or fragment, UniProt Q13094 1-61)
chain: MALRNVPFRSEVLGWDPDSLADYFKKLNYKDCEKAVKKYHIDGARFLNLTENDIQKFPKLR

binding [7]: binds
B5: ADAP (adhesion and degranulation promoting adapter protein) (protein, UniProt O15117 1-783)
chain: MAKYNTGGNPTEDVSVNSRPFRVTGPNSSSGIQARKNLFNNQGNASPPAGPSNVPKFGSPKPPVAVKPSSEEKPDKEPKPPFLKPTGAGQRFGTPASLTTRDPEAKVGFLKPVGPKPINLPKEDSKPTFPWPPGNKPSLHSVNQDHDLKPLGPKSGPTPPTSENEQKQAFPKLTGVKGKFMSASQDLEPKPLFPKPAFGQKPPLSTENSHEDESPMKNVSSSKGSPAPLGVRSKSGPLKPAREDSENKDHAGEISSLPFPGVVLKPAASRGGPGLSKNGEEKKEDRKIDAAKNTFQSKINQEELASGTPPARFPKAPSKLTVGGPWGQSQEKEKGDKNSATPKQKPLPPLFTLGPPPPKPNRPPNVDLTKFHKTSSGNSTSKGQTSYSTTSLPPPPPSHPASQPPLPASHPSQPPVPSLPPRNIKPPFDLKSPVNEDNQDGVTHSDGAGNLDEEQDSEGETYEDIEASKEREKKREKEEKKRLELEKKEQKEKEKKEQEIKKKFKLTGPIQVIHLAKACCDVKGGKNELSFKQGEQIEIIRITDNPEGKWLGRTARGSYGYIKTTAVEIDYDSLKLKKDSLGAPSRPIEDDQEVYDDVAEQDDISSHSQSGSGGIFPPPPDDDIYDGIEEEDADDGFPAPPKQLDMGDEVYDDVDTSDFPVSSAEMSQGTNVGKAKTEEKDLKKLKKQEKEEKDFRKKFKYDGEIRVLYSTKVTTSITSKKWGTRDLQVKPGESLEVIQTTDDTKVLCRNEEGKYGYVLRSYLADNDGEIYDDIADGCIYDND
